# ± gives the standard deviation of the averaged measurements. Some of the results follow.
# Test system: PfAP2-EXP AP2 domain (GST-tagged)
# Assay: gcPBM binding intensity (ln(normalized median fluorescence intensity)); higher = stronger DNA binding
# In short: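 GST-tagged P. falciparum DNA-binding domains produced in E. coli were incubated for 1 h on an Agilent 4 × 180k array of primer-extended double-stranded 36-bp intergenic genomic probes with negative controls. Binding intensity is the highest Masliner-normalised natural-log median intensity across replicate spots of either probe orientation, with bound protein detected by Alexa488 anti-GST antibody at 488 nm.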
row,Sequence,gcPBM binding intensity (ln)
1,TTAAAAATTATGGATACACACATATATATATATATT [CACACA_site2383],8.32 ± 0.3
2,GATATTAAAATATGTAGTACACATATTATATCATAT [XGTACX_site4167],8.58 ± 0.11
3,ATAGTTCCTTTTAATACACACAAAAAAAAAAACATG [CACACA_site3415],8.45 ± 0.42
4,TACATATTTGTATATGCACACATAAATTTTTCCATT [CACACA_site9148],8.48 ± 0.25
5,AAATATTTATACCACACACACATACCTCTATTTGTA [CACACA_site6957],8.69 ± 0.51
6,TAAATATAGGGTAATAGTACATAATTATATTCTTTT [XGTACX_site3883],8.3 ± 0.34
7,TTTTTTTTTTTTTAATGTACCCATGGGCACATAGGT [XGTACX_site486],8.53 ± 0.23
8,TATATTTATATATTAGTGCACTTTTTGTTAATTTTT,8.79 ± 0.19
9,AATGGATTAGCTAGCACACACAAAAAAAAAAAAAAA [CACACA_site3031],8.38 ± 0.61
10,GATACAAAATGGGGAACACACACATATATATATATA [CACACA_site9278],10.1 ± 0.38
11,TATATATATATATAATGTACGAATAGAAAAAAAAAA [XGTACX_site7231],9.88 ± 0.3
12,CAAAATTTATATAATAGTACACATGATCTTTTTTCT [XGTACX_site8956],8.43 ± 0.49
13,TATATATATATATATATATATATTAATATATATTAC [XGTACX_negctrl_site103],9.88 ± 0.42
14,AAATTAATAAATATTTTTATAAATTATAATATTAAT [GTGCAC_negctrl_site533],7.91 ± 0.42
15,ATAACAAAATAAAACACACACACAAATGTACCTATA [CACACA_site7190],8.69 ± 0.45
16,TAAAGGCAAACAAACACACACACATATATACCTATA [CACACA_site7078],8.62 ± 0.63
17,TATTTATAAATATAAACACACAACATTATATGCATA [CACACA_site5748],8.6 ± 0.47
18,AAAAGTGTATGTAGGTGTACTTTTTATTTCTTCTTT [XGTACX_site8819],8.53 ± 0.39
19,TTTTACTATGATATTTATATATCTATATATGTATAT [XGTACX_negctrl_site499],8.21 ± 0.36

row,Sequence,gcPBM binding intensity (ln)
1,TATAATATTATAGTTTGTACGAAAATAATATATTTA [XGTACX_site8673],8.42 ± 0.51
2,AAAAATAAAAATGAGTGTACTTTAAGCCCTACACTT [XGTACX_site828],8.26 ± 0.25
3,ACGATGTTCATCACTACACACACAAAGAAATATATA [CACACA_site8859],8.63 ± 0.47
4,AACCAAAATTTTTGTCGTACAAAAGAGCAAATGTAG [XGTACX_site6472],9.11 ± 0.34
5,TGATTATAGACACGCGCACACACAACAAAAAAAAAA [CACACA_site9179],8.72 ± 0.45
6,TAAGTTTGTGCAAGTGGTACATATATATAAATTTAT [XGTACX_site5944],8.75 ± 0.37
7,TGGATTTTTTGATTTTTGTTTTTCTTCTTTCCCCCC [CACACA_negctrl_site1471],9.31 ± 0.2
8,TTAGCAACTATTACTACACACATTTGTATTTAATTT [CACACA_site4961],8.49 ± 0.35
9,TTTACATAAACTGGTAGTACATAATATGGCTTAAAA [XGTACX_site5002],8.49 ± 0.35
10,TAAAATATATTTTTCTGTACACAAAAATATATTAAA [XGTACX_site2813],8.44 ± 0.13
11,TATATATTAATATATGCATGTTAATATATTATGAAA [TGCATGCA_site61],8.29 ± 0.38
12,ACAGTATAAAAATAAGCACACACACTAATATATATT [CACACA_site8212],8.75 ± 0.4
13,AATGTAAAACGAAATGCACACTATGGAAAATATAAA [CACACA_site4559],9.05 ± 0.45
14,TCTTTATATCATCTTTCTAAATATATATATATATAA [CACACA_negctrl_site77],8.56 ± 0.58
15,TAATAATAATTAAAATGAGATAAATAAATATATATA [TGCATGCA_negctrl_site322],8.39 ± 0.26
16,CTATTAATGTACTCTACACACATATAAGAGGACATT [CACACA_site471],8.4 ± 0.2
17,TTATATATTTATAAATGTACGTATAAGAATTTAATT [XGTACX_site8541],8.57 ± 0.38
18,TATTACAAAAATGTGTTATTATATAAACGTATAGAG [XGTACX_negctrl_site529],8.63 ± 0.35
19,TTTCTTATATTATATAAATATATAGATGTTAATGGT [CACACA_negctrl_site706],8.38 ± 0.47

row,Sequence,gcPBM binding intensity (ln)
1,AATATAATATAATGCACACATAAAAAAAAAAAAAAA [CACACA_site304],8.77 ± 0.071
2,TTAATATTAAAATATAAACACACAAAATTCAATTAT [CACACA_site9262],8.48 ± 0.42
3,AGTAAATATATTATATGTACGTATCATAAAATATAT [XGTACX_site1567],8.46 ± 0.28
4,AAGTTTAAAGGAATTACACAAACAAGCAAATATATA [CACACA_negctrl_site857],8.79 ± 0.52
5,GTAAAATAAATAATATAAATAAAATGAAATGAAACA [TGCATGCA_negctrl_site519],9.01 ± 0.63
6,ATTTTTTTTTTTTTTTTTAATTTATGTTGTTATTTT [CACACA_negctrl_site944],8.2 ± 0.5
7,ATATATATATATATAGTGCAAATAAAAAATAGACAA [GTGCAC_site9796],10.2 ± 0.3
8,TAATATATTAAAAGAAGTACATTTCTGATTTAATAG [XGTACX_site6403],8.38 ± 0.25
9,GAACCGTTTTTATGTAGTACATATGTATATATATAT [XGTACX_site1577],9.66 ± 0.2
10,ATTATATAATAATAAAGTACTAATATTTTTAAAAGA [XGTACX_site235],8.41 ± 0.38
11,TTATTTATATATTGCCCACACACATGTGATTATTTA [CACACA_site1715],8.91 ± 0.4
12,AATATTTTTTGTTTTACACACATATATAAATATATA [CACACA_site3602],8.53 ± 0.41
13,TATTCCCCCCAACACACACACACACCGACATACCAC [CACACA_site8723],10.2 ± 0.23
14,GAATTATATACTTATTGTACAAAAAAAAAAAAAAAA [XGTACX_site3193],8.19 ± 0.37
15,ATAAACATGTATATATTAAAAAAAAAAAAAAAAAAT [CACACA_negctrl_site92],8.21 ± 0.46
16,TTTTTAATTTTTTTCACACATATATAAATACAAATA [CACACA_site5530],8.4 ± 0.41
17,AAATTACAAATAAAATGTACTCATGTTTTTATTATA [XGTACX_site7223],8.15 ± 0.26
18,GCAAGGTCCACACTGGTGCATTAAAAATAAAATATA [GTGCAC_site9956],8.87 ± 0.18

# From the supplement of paper PMC11417369
